In the RNAGym collection of RNA variant scans (doi:10.7554/elife.90254):
Read counts are not given, so values of variants with three or more changes are uncertain.

B1: OR4K15 (parent)
chain: GUUAACGGUCAUAGGCCAUGGAAACUAGGAGCACCAUUUCGCUGCCAGUGAAGAAAUGAACAAAGAAAAUCUGGGCCAGGCAGGCAUCAAAAGAAAUAGUCUUGCGCUCAACCAGAAAGUCUGUAAUCAUUUUAAGGGUA

Variants of: B1
Experiment: self-cleavage, relative activity (ratio to wild type); higher = more cleavage; in vitro, sequencing; the parent is a self-cleaving ribozyme

Variant	self-cleavage
GUUAACGGUCAUAGGCCAUGGAAGCUAGGAGCACCAUUUCGCUGCCAGUGAAGAAAUGAACGAAGAAAAUCUGGGCCAGGCAGGCAUCAAAAGAAAUAGUCUUGCGCUCAACCAGAAAGUCUGUAAUCACUUUAAGGGUA	1.27
GUUAACGGUCAUAGGCCAUGGAAGCUAGGAGCACCAUUUCGCUGCCAGUGAAGAAAUGAACAAGGAAAAUCUGGGCCAGGCAGGCAUCAAAAGAAAUAGUCUUGCGCUCAACCAGAGAGUCUGUAAUCAUUUUAAGGGUA	1.07
GUUAACGGUCAUAGGCCAUGGAAGCUAGGAGCACCAUUUCGCUGCCAGUGAAGAAAUGAACAAAGAGAAUCUGGGCCAGGCAGGCAUCAGAAGAAAUAGUCUUGCGCUCAGCCAGAAAGUCUGUAGUCAUUUUAAGGGUA	0
GUUAACGGUCAUAGGCCAUGGAAGCUAGGAGCACCAUUUCGCUGCCAGUGAAGAAAUGAACAAGGAAAAUCUGGGCCAGGCAGGCAUCAAGAGAAAUAGUCCUGCGCUCAACCAGAAAGUCUGUAAUCAUUUUAAGGGUA	1.57
GUUAACGGUCAUAGGCCAUGGAAGCUAGGAGCACCAUUUCGCUGCCAGUGAAGAAAUGAACAAAGACAAUCUGGGCUAGGCAGGCAUCAAAAGAAAUAGUCCUGCGCUCAACCAGAAAGUCUGUAAUCAUUUUAAGGGUA	1.98
GUUAACGGUCAUAGGCCAUGGAAGCUAGGAGCACCAUUUCGCUGCCAGUGAAGAAAUGGACAAAGAAAAUCUGGGCCAGGCAGGCAUCAAAAGAAAUAGUCUUGCGCUCAACCAGAAGGUCUGUAAUCAUUUUAAGGGUA	0.51
GUUAACGGUCAUAGGCCAUGGAAGCUAGGAGCACCAUUUCGCUGCCAGUGAAGAGAUGAACAAAGAAAAUCUGGGCCAGGCAGGCAUCAAAAGAAAUAGUCUUGCGCCCAACCAGAAAGUCUGUAAUCAUUUUAUGGGUA	0.02
GUUAACGGUCAUAGGCCAUGGAAGCUAGGAGCACCAUUUCGCUGCCAGUGAAGAAGUGGACAAAGAAAAUCUGGGCCGGGCAGGCAUCUAAAGAAAUAGUCUUGCGCUCAACCAGAAAGUCUGCAAUCAUUUUAAGGGUA	0.04
GUUAACGGUCAUAGGCCAUGGAAGCUAGGAGCACCAUUUCGCUGCCAGUGAAGAAAUGAACAAAGAAGAUCUGGGCCAGGCAGGCAUCGAAAGAAAUAGUCUUGCGCUCAACCAGAAAGUCUGUAAUCAUUUUAAGGGUA	0.91
GUUAACGGUCAUAGGCCAUGGAAGCUAGGAGCACCAUUUCGCUGCCAGUGAAGAAAUGAGCAAAGAAAAUCUGGGCCAGGCAGGCAUCAAAAGAAAUAGUCUUGCGCUCAACCAGAAAGUCUGCAAUCAUUUUAAGGGUA	0.67
GUUAACGGUCAUAGGCCAUGGAAGCUAGGAGCACCAUUUCGCUGCCAGUGAAGAAAUGAACAAAGAAGAUCUGGGCCAGUCAGGCAUCAAAAGAAAUAGUCUUGCUCUCAACCAGAAAGUCUGUAAUCAUUUUAAAGGUA	0
GUUAACGGUCAUAGGCCAUGGAAGCUAGGAGCACCAUUUCGCUGCCAGUGAAGAAAUGAACGAAGAAAAUCUGGGCCAGGCAGGCAUCAAAAGAAAUAGUCUUGCGCUCAGCCAGAAAGUCUGUAAUCAUUUUAAGGGUA	0.01
GUUAACGGUCAUAGGCCAUGGAAGCUAGGAGCACCAUUUCGCUGCCAGUGAAGAAAUGAGCAAAGAAAAUCUGGGCCAGGCAGGCAUCAAAAGAAAUAGUCUUGCGCUCAACCAGAAAGUCUGUAAUCAUCUUAAGGGUA	1.71
GUUAACGGUCAUAGGCCAUGGAAGCUAGGAGCACCAUUUCGCUGCCAGUGAAGAAAUGACCAAAGGAAAUCUGGGCCAGGCAGGCAUCAAAAGAAAUAGUCGUGCGCUCAACCAGAAAGUCUGUAAUCAUUUUAAGGGUA	0.76
GUUAACGGUCAUAGGCCAUGGAAGCUAGGAGCACCAUUUCGCUGCCAGUGAAGAAAUGAACAAAGAGAAUCUGGGCCAGGCAGGCAUCAAGAGAAAUAGUCUUGCGCUCAACCAGAAAGUCUGUAAUCAUUUUAAGGGUA	1.77
GUUAACGGUCAUAGGCCAUGGAAGCUAGGAGCACCAUUUCGCUGCCAGUGAAGAAAUGAACAAGGAAAAUCUGGGCCAGGCAGGCAUCAAAAGAGAUAGUCUUGCGCUCAACCAGAAAGUCUGUAAUCAUUUUAAGGGUA	0.92
GUUAACGGUCAUAGGCCAUGGAAGCUAGGAGCACCAUUUCGCUGCCAGUGAAGAAAUGAGCAAAGAAAACCUGGGCCAGGCAGGCAUCAAAAGAAAUAGUCUCGCGCUCAACCAGAAAGUCUGUAAUCAUUUUAAGGGUA	0.67
GUUAACGGUCAUAGGCCAUGGAAGCUAGGAGCACCAUUUCGCUGCCAGUGAAGAAAUGAACAACGAAAAUCUGGGCCAGGCAGGCAUCAAAAGAAAUGGUCUUGCGCUCAACCAGAGAGUCUGUAAUCAUUUUAAGGGUA	0.39
GUUAACGGUCAUAGGCCAUGGAAGCUAGGAGCACCAUUUCGCUGCCAGUGAAGAUAUGAACAAAGAAAAUCUGGGCCUGGCAGGCAUCAAAAGAAAUAGUCUUGCGCUCAACCAGAAAGUCUGUAAUCAUUUUAAGGGUA	0.34
GUUAACGGUCAUAGGCCAUGGAAGCUAGGAGCACCAUUUCGCUGCCAGUGAAGAAAUGAACAAAGAAGAUCUGGGCCAGGCAGGCAUCAGAAGAAAUAGUCUUGCGCUCAACCAGGAAGUCUGUAAUCAUUUUAAGGGUA	0.22
GUUAACGGUCAUAGGCCAUGGAAGCUAGGAGCACCAUUUCGCUGCCAGUGAAGAAGUGAACAAAGAAAAUCUGGGCCAGGCAGGCAACAAAAGAAAUAGUCCUGCGCUCAACCAGAAAGUCUGUAACCAUUUUAAGGGUA	0.79
